{"source": "the supplement of paper PMC7826260", "note": "The list shows a part of the results. Viral Rep nickase domains cut single-stranded DNA in vitro (3 µM enzyme, 1 h, 37 °C); shown is the middle of each 90-letter strand. The score is log2 (uncut reads / reads without enzyme); more negative means more cut, near 0 not cut, and no call is made. The scaling is to total reads, so uncut sequences can rise above 0 when many others are cut.", "data": [{"tested_on": "T1, Rep nickase domain of chickpea chlorotic dwarf virus", "T1 sequence (protein, residues 1-124, tag omitted)": "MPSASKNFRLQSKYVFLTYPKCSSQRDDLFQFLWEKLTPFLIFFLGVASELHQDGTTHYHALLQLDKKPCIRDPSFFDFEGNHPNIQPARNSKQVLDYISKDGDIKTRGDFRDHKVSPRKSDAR", "test": "uncleaved DNA left, log2 of reads against the no-enzyme library (log2 ratio); higher = less cleavage (more negative = more Rep cleavage of the k-mer); sequences stand for … in CTCGTCCG…ACCGGAGA", "description": "(§1)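 A pool of 90-nt single-stranded DNAs with seven random bases just before the constant AC of the nick site (name = the seven bases) was cut by 3 µM recombinant His6-SUMO-tagged Rep nickase domain (300 nM DNA, 50 mM HEPES pH 8.0, 50 mM NaCl, 1 mM MnCl2, 1 h, 37 °C, three replicates). Uncut DNA was amplified and sequenced.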", "values": [{"sequence": "GACGATC", "uncleaved DNA left (log2)": 0.689}, {"sequence": "CACCGAC", "uncleaved DNA left (log2)": 0.0925}, {"sequence": "AATCCAG", "uncleaved DNA left (log2)": -0.487}, {"sequence": "AGACTTC", "uncleaved DNA left (log2)": 1.06}, {"sequence": "CCTCGCA", "uncleaved DNA left (log2)": -0.939}, {"sequence": "CGGACCC", "uncleaved DNA left (log2)": 1.11}, {"sequence": "AAGTTAG", "uncleaved DNA left (log2)": -0.604}, {"sequence": "TGGTAAG", "uncleaved DNA left (log2)": -0.512}, {"sequence": "AGATCTC", "uncleaved DNA left (log2)": 0.527}, {"sequence": "GCACCAG", "uncleaved DNA left (log2)": -0.375}, {"sequence": "AACCATC", "uncleaved DNA left (log2)": -0.614}, {"sequence": "CTGGAAA", "uncleaved DNA left (log2)": 0.442}, {"sequence": "AAATAAT", "uncleaved DNA left (log2)": -3.59}, {"sequence": "ACTAGGA", "uncleaved DNA left (log2)": 0.454}, {"sequence": "ATAATCG", "uncleaved DNA left (log2)": 0.064}, {"sequence": "TTCTTCT", "uncleaved DNA left (log2)": -2.07}, {"sequence": "TCTTTGA", "uncleaved DNA left (log2)": -0.294}, {"sequence": "GCTAGCA", "uncleaved DNA left (log2)": -0.13}, {"sequence": "GGGTAGG", "uncleaved DNA left (log2)": 1.76}, {"sequence": "ACACCAG", "uncleaved DNA left (log2)": -0.0612}, {"sequence": "GTGATGT", "uncleaved DNA left (log2)": 1.12}, {"sequence": "ACACCTC", "uncleaved DNA left (log2)": 0.218}, {"sequence": "AAGTCGA", "uncleaved DNA left (log2)": -0.888}, {"sequence": "GGGCGTG", "uncleaved DNA left (log2)": 1.57}, {"sequence": "GTTATAC", "uncleaved DNA left (log2)": 0.798}, {"sequence": "TCCCACC", "uncleaved DNA left (log2)": -0.641}, {"sequence": "ACGAGTA", "uncleaved DNA left (log2)": -0.859}, {"sequence": "CGCTGGG", "uncleaved DNA left (log2)": -0.318}, {"sequence": "GTCCCGT", "uncleaved DNA left (log2)": 0.666}, {"sequence": "GGCCTGA", "uncleaved DNA left (log2)": 0.957}, {"sequence": "TGCTGTG", "uncleaved DNA left (log2)": -0.578}, {"sequence": "CGGTCCC", "uncleaved DNA left (log2)": 0.591}, {"sequence": "TGCCTTC", "uncleaved DNA left (log2)": 0.291}, {"sequence": "CAGACAT", "uncleaved DNA left (log2)": 1.9}, {"sequence": "TCAACCG", "uncleaved DNA left (log2)": -1.32}, {"sequence": "GTAGCGA", "uncleaved DNA left (log2)": -0.442}, {"sequence": "GGACCCT", "uncleaved DNA left (log2)": 1.53}, {"sequence": "CTTATCT", "uncleaved DNA left (log2)": -1.57}, {"sequence": "GCGAGGG", "uncleaved DNA left (log2)": 0.496}, {"sequence": "AAGTGAG", "uncleaved DNA left (log2)": -0.398}]}, {"tested_on": "T2, Rep nickase domain of faba bean necrotic yellows virus", "T2 sequence (protein, residues 1-98, tag omitted)": "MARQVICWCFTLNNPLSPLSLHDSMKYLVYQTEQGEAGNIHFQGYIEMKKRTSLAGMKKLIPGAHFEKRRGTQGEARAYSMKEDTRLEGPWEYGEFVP", "test": "uncleaved DNA left, log2 of reads against the no-enzyme library (log2 ratio); higher = less cleavage (more negative = more Rep cleavage of the k-mer); sequences stand for … in CTCGTCCG…ACCGGAGA", "description": "as §1", "values": [{"sequence": "GACGATC", "uncleaved DNA left (log2)": 0.0421}, {"sequence": "CACCGAC", "uncleaved DNA left (log2)": -0.0184}, {"sequence": "AATCCAG", "uncleaved DNA left (log2)": 0.0304}, {"sequence": "AGACTTC", "uncleaved DNA left (log2)": -0.0784}, {"sequence": "CCTCGCA", "uncleaved DNA left (log2)": 0.128}, {"sequence": "CGGACCC", "uncleaved DNA left (log2)": 0.0648}, {"sequence": "AAGTTAG", "uncleaved DNA left (log2)": 0.112}, {"sequence": "TGGTAAG", "uncleaved DNA left (log2)": 0.0565}, {"sequence": "AGATCTC", "uncleaved DNA left (log2)": -0.0582}, {"sequence": "GCACCAG", "uncleaved DNA left (log2)": -0.00727}, {"sequence": "AACCATC", "uncleaved DNA left (log2)": -0.146}, {"sequence": "CTGGAAA", "uncleaved DNA left (log2)": 0.296}, {"sequence": "AAATAAT", "uncleaved DNA left (log2)": -0.314}, {"sequence": "ACTAGGA", "uncleaved DNA left (log2)": 0.0285}, {"sequence": "ATAATCG", "uncleaved DNA left (log2)": -0.00264}, {"sequence": "TTCTTCT", "uncleaved DNA left (log2)": 0.0926}, {"sequence": "TCTTTGA", "uncleaved DNA left (log2)": 0.0403}, {"sequence": "GCTAGCA", "uncleaved DNA left (log2)": -0.00489}, {"sequence": "GGGTAGG", "uncleaved DNA left (log2)": 0.114}, {"sequence": "ACACCAG", "uncleaved DNA left (log2)": -0.0298}, {"sequence": "GTGATGT", "uncleaved DNA left (log2)": -0.000461}, {"sequence": "ACACCTC", "uncleaved DNA left (log2)": 0.0125}, {"sequence": "AAGTCGA", "uncleaved DNA left (log2)": 0.0306}, {"sequence": "GGGCGTG", "uncleaved DNA left (log2)": -0.063}, {"sequence": "GTTATAC", "uncleaved DNA left (log2)": -0.062}, {"sequence": "TCCCACC", "uncleaved DNA left (log2)": -0.157}, {"sequence": "ACGAGTA", "uncleaved DNA left (log2)": 0.0947}, {"sequence": "CGCTGGG", "uncleaved DNA left (log2)": 0.00918}, {"sequence": "GTCCCGT", "uncleaved DNA left (log2)": -0.083}, {"sequence": "GGCCTGA", "uncleaved DNA left (log2)": 0.0202}, {"sequence": "TGCTGTG", "uncleaved DNA left (log2)": 0.0887}, {"sequence": "CGGTCCC", "uncleaved DNA left (log2)": 0.0121}, {"sequence": "TGCCTTC", "uncleaved DNA left (log2)": 0.0543}, {"sequence": "CAGACAT", "uncleaved DNA left (log2)": -0.0218}, {"sequence": "TCAACCG", "uncleaved DNA left (log2)": -0.00686}, {"sequence": "GTAGCGA", "uncleaved DNA left (log2)": -0.0408}, {"sequence": "GGACCCT", "uncleaved DNA left (log2)": -0.0797}, {"sequence": "CTTATCT", "uncleaved DNA left (log2)": -0.0669}, {"sequence": "GCGAGGG", "uncleaved DNA left (log2)": -0.0322}, {"sequence": "AAGTGAG", "uncleaved DNA left (log2)": 0.0749}]}, {"tested_on": "T3, Rep nickase domain of maize striate mosaic virus", "T3 sequence (protein, residues 1-117, tag omitted)": "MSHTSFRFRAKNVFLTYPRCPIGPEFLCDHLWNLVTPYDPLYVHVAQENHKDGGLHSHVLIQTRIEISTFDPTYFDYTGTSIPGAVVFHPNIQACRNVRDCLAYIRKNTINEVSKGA", "test": "uncleaved DNA left, log2 of reads against the no-enzyme library (log2 ratio); higher = less cleavage (more negative = more Rep cleavage of the k-mer); sequences stand for … in CTCGTCCG…ACCGGAGA", "description": "as §1", "values": [{"sequence": "GACGATC", "uncleaved DNA left (log2)": 0.775}, {"sequence": "CACCGAC", "uncleaved DNA left (log2)": -0.503}, {"sequence": "AATCCAG", "uncleaved DNA left (log2)": -1.11}, {"sequence": "AGACTTC", "uncleaved DNA left (log2)": 1.35}, {"sequence": "CCTCGCA", "uncleaved DNA left (log2)": -0.93}, {"sequence": "CGGACCC", "uncleaved DNA left (log2)": 1.29}, {"sequence": "AAGTTAG", "uncleaved DNA left (log2)": -1.22}, {"sequence": "TGGTAAG", "uncleaved DNA left (log2)": -0.835}, {"sequence": "AGATCTC", "uncleaved DNA left (log2)": 1.08}, {"sequence": "GCACCAG", "uncleaved DNA left (log2)": -0.811}, {"sequence": "AACCATC", "uncleaved DNA left (log2)": -0.913}, {"sequence": "CTGGAAA", "uncleaved DNA left (log2)": 0.134}, {"sequence": "AAATAAT", "uncleaved DNA left (log2)": -3.4}, {"sequence": "ACTAGGA", "uncleaved DNA left (log2)": -0.596}, {"sequence": "ATAATCG", "uncleaved DNA left (log2)": -1.11}, {"sequence": "TTCTTCT", "uncleaved DNA left (log2)": -0.527}, {"sequence": "TCTTTGA", "uncleaved DNA left (log2)": -0.741}, {"sequence": "GCTAGCA", "uncleaved DNA left (log2)": -0.678}, {"sequence": "GGGTAGG", "uncleaved DNA left (log2)": 2.19}, {"sequence": "ACACCAG", "uncleaved DNA left (log2)": -1.07}, {"sequence": "GTGATGT", "uncleaved DNA left (log2)": 1.74}, {"sequence": "ACACCTC", "uncleaved DNA left (log2)": 0.232}, {"sequence": "AAGTCGA", "uncleaved DNA left (log2)": -1.05}, {"sequence": "GGGCGTG", "uncleaved DNA left (log2)": 2}, {"sequence": "GTTATAC", "uncleaved DNA left (log2)": 1.66}, {"sequence": "TCCCACC", "uncleaved DNA left (log2)": -0.362}, {"sequence": "ACGAGTA", "uncleaved DNA left (log2)": -0.736}, {"sequence": "CGCTGGG", "uncleaved DNA left (log2)": -0.465}, {"sequence": "GTCCCGT", "uncleaved DNA left (log2)": 1.5}, {"sequence": "GGCCTGA", "uncleaved DNA left (log2)": 1.67}, {"sequence": "TGCTGTG", "uncleaved DNA left (log2)": -0.983}, {"sequence": "CGGTCCC", "uncleaved DNA left (log2)": 0.729}, {"sequence": "TGCCTTC", "uncleaved DNA left (log2)": 0.225}, {"sequence": "CAGACAT", "uncleaved DNA left (log2)": 2.07}, {"sequence": "TCAACCG", "uncleaved DNA left (log2)": -1.01}, {"sequence": "GTAGCGA", "uncleaved DNA left (log2)": -0.803}, {"sequence": "GGACCCT", "uncleaved DNA left (log2)": 2.11}, {"sequence": "CTTATCT", "uncleaved DNA left (log2)": -0.298}, {"sequence": "GCGAGGG", "uncleaved DNA left (log2)": 1.24}, {"sequence": "AAGTGAG", "uncleaved DNA left (log2)": -0.834}]}]}
